The data set deals with ATP. The data set can be described thus: switch fluorescence ratio, 500 uM ATP over buffer (Cy3 cluster intensity, sum of 5 cycles each) (fold (ratio)); higher = stronger signal-on switching upon ATP binding; sequences stand for … in TCGTCGGCAGCGTCAGATGTGTATAAGAGACAGTTTTTTTTTTTTTTTTTTTTTTTTT…TC. The conditions noted are these: aptamer strand: ATP DNA aptamer (quencher-CACCTGGGGGAGTATTGCGGAGGAAGG + anchor), 100 nM annealed; ATP concentration: 500 uM; one replicate. A digest of the protocol:
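Clusters with intensities outside 100-1000 RFU were excluded. The remaining Cy3-labelled switching-strand clusters on a modified Illumina MiSeq flow-cell had been annealed to 100 nM quencher-labelled ATP aptamer and imaged in selection buffer, then after 15 min with 500 uM ATP at 22 °C, for five cycles separated by NaOH stripping and re-annealing. The fluorescence ratio, averaged per switch-domain sequence, is each cluster's summed target-cycle Cy3 intensity over its summed buffer-cycle Cy3 intensity.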

Values marked as one replicate rest on one cluster of the flow cell; about a third of the high ones do not repeat.
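Also: ATP exposure 15 min at 22 °C before imaging.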

Consider GATAAACGGT, for which the switch fluorescence ratio came to 0.992.

In the case of TCAAAAGATA, the switch fluorescence ratio is 1.01. The value for TCGAAAGATT was 0.988; that for GGAAAATCAC was 1.03; that for CTCCACGAGA was 1.14. The result for AGGATTGGAT reads 0.987. The result for ATTAGTTGAA reads 0.979.

Consider AAGGAGAACG, for which the switch fluorescence ratio was 1.01.

As for GCCCCAGCAG, the switch fluorescence ratio is 1.13. Consider TCATCGCCTT, for which the switch fluorescence ratio is 1.1. TTTCAACCCG: the switch fluorescence ratio turned out to be 0.961.

With CCGAGGCGGA, the switch fluorescence ratio turned out to be 1.81.

Turning to CGGGATCCTT, the switch fluorescence ratio was determined as 1.05.

In the case of ACGGGCTGTA, the switch fluorescence ratio turned out to be 0.992. In the case of TCTGGGTAGG, the switch fluorescence ratio turned out to be 0.997. The value for GCATGTTCCA was 0.993; that for GGACGAATCT was 1. The value for CTTTCACAG was 1.01; that for TCGGCAACGT was 1.01; that for AACGGGATC was 1.27. In the case of AGGACGGCTA, the switch fluorescence ratio stood at 1.01. The value for TCGCGGGGAA was 0.997; that for ACCTTCAGCA was 2.53; that for TAGCCCTGGA was 1.02. The value for CGCTCGCTGT was 1.25; that for TTCCCATCA was 1.01. The result for ATGGACCGC reads 1.11.

In the case of TTGAATACGC, the switch fluorescence ratio stood at 1.02. The value for TTTCCATCGA was 1.14; that for GTCTATTGAA was 0.962. The result for AGTCATTATA reads 0.982. GGTCATGACA: the switch fluorescence ratio worked out at 0.998. The value for TGGAGGTCGG was 1.01; that for ACAGGTCGG was 1.17.

In the case of CGGTATTCCC, the switch fluorescence ratio amounted to 1.06.

Turning to GATATTTCCA, the switch fluorescence ratio is 0.981. As for CTGATTGCCT, the switch fluorescence ratio was determined as 0.999.

For the sequence CGCAACGTTG, the switch fluorescence ratio worked out at 0.976. The value for CCCGATCAAT was 1.72. The value for TACTCTGCGG was 2.24; that for CGAAGGATGG was 0.974; that for CAGGCTAACA was 1.01. The result for ATGCTGGCTT reads 1.05. Regarding CAATTTGCAT, the switch fluorescence ratio came to 0.957. The result for GTAGGTGTAG reads 1.01; that for TCTCTATCCC, 1.05; that for CAGTAGCAGG, 1.36. The result for TTCACGATAG reads 0.999; that for TAACGTCTAG, 1.01. The value for CAAGCCACTG was 1.05. On to GCACCGGTTT, for which the switch fluorescence ratio was 0.989. CATACTGTCC: the switch fluorescence ratio amounted to 1.08. The value for ACGTTGAGTA was 0.974; that for GCGCGGTCAG was 1.01. On to CTATGTATTA, for which the switch fluorescence ratio is 1.05. In the case of GTTTTATCAC, the switch fluorescence ratio was found to be 1.01. The value for GCGGACCAAC was 1.14.

For AGATTCGAGT, the switch fluorescence ratio came to 0.954. The result for TATGCTAGAT reads 0.985. With GCAGCTTCGC, the switch fluorescence ratio was found to be 0.988.

Consider TTGTATGCAT, for which the switch fluorescence ratio came to 0.95. Turning to GATCACGTAA, the switch fluorescence ratio amounted to 1.27. The value for GCCGTGCTCG was 1.01; that for TCATTCGAGC was 0.994.

Take TAATGAGCCG: the switch fluorescence ratio is 1.08. The value for ATTGTTGTCG was 1.01; that for GTAGGGAATG was 1; that for TAATGCTCAC was 1.06. Turning to ACGTCGAGCC, the switch fluorescence ratio was determined as 1.07.

Take CGTTTCTTCA: the switch fluorescence ratio worked out at 1.02. The value for CAATACGGAA was 1.26; that for ATATGCATTA was 1.01; that for GCTTCAGCGG was 0.985. Consider GTCTGACCGA, for which the switch fluorescence ratio is 1.06.

As for CTGCCACGAG, the switch fluorescence ratio turned out to be 1.07.

ACCACGGTTA: the switch fluorescence ratio stood at 1.08. The result for TCAAGTGTGG reads 1; that for CATAGCTCTC, 1.14; that for TCAACCTGAG, 1.81.

For the sequence TCACTAGATG, the switch fluorescence ratio amounted to 1.02. The value for GAGCCTCTGA was 1.02; that for TAAGTATGAT was 0.96.

Regarding CATTGCAGTC, the switch fluorescence ratio is 1.12. Consider ATTTGTTGA, for which the switch fluorescence ratio amounted to 1.

As for GCGTCGATTG, the switch fluorescence ratio was found to be 1.01. The value for AACGAACTTT was 1.2; that for TGCGCCTGGA was 1.03. Consider GTCCCCGTGT, for which the switch fluorescence ratio came out at 1.02. The value for CAAAAAAAGG was 0.974; that for TGCACGTTGT was 1.07; that for CCGTTGATTG was 0.997.

For CCAGTGCGGT, the switch fluorescence ratio came to 1.04.

Regarding TGAATATGAC, the switch fluorescence ratio was 1.05.

For the sequence ATATGCATTG, the switch fluorescence ratio was found to be 1.03. Consider TCGATATCG, for which the switch fluorescence ratio turned out to be 0.985. Turning to CAACACGATA, the switch fluorescence ratio came to 1.2. The value for GAAAACATTC was 1.08; that for ATGTACGGC was 1.08. The value for ATGTTGGAAC was 1.04. As to CGGCTTGATT, the switch fluorescence ratio turned out to be 1.02. Regarding CGGCCGTGGT, the switch fluorescence ratio worked out at 0.998.

As to AAGTAGCTAG, the switch fluorescence ratio worked out at 0.96. The result for AATGTGGTCC reads 1.02; that for CAAAAACTGT, 0.998.

Regarding CCTCGGGCAG, the switch fluorescence ratio stood at 1.59. The value for AGGGGGCCTC was 1.04; that for TCGTCGTG was 0.998. The result for CCATTTTTGA reads 0.999; that for CGTCGTCTCA, 0.985; that for CTTTAAGATA, 0.981. On to AGGCAGCTGC, for which the switch fluorescence ratio is 1.01.

Take CAGGTATTTA: the switch fluorescence ratio worked out at 1.02. The value for TGAGTCTTCT was 0.963; that for TGGTCAATTA was 1.03. The result for GGTGATCCAT reads 0.971; that for GATAGTTTCC, 1.09; that for AGCCTGCATG, 0.973.

Regarding GCATCGGAGA, the switch fluorescence ratio was 1.03. The value for TTTAGACACA was 1.02; that for CGCATTTTAG was 1.14.

The record behind these values is the supplement of paper PMC10126150.
